# Results reported in PubChem BioAssay AID1508642 (National Center for Advancing Translational Sciences (NCATS), 2021).
# The whole screen tested about 43,000 compounds, of which about 200 (0.47%) were called active. Inconclusive results (about 12%) are left out. Calls come from the whole dose curve; as a rule, active = well fitted cell-killing curve with a large enough effect; inconclusive = small, poorly fitted or top-dose-only effect, or effect the other way; inactive = flat fitted curve, though single readings scatter. This is one part of the list.
# Experiment: Cell viability qHTS assay in S16 Pmp22-F2sN cells; note: nearly all actives have a fitted effect of over 65% in size
# Details: S16 Pmp22-F2sN Schwann cells (luciferase reporters placed in the Pmp22 gene) viability, CellTiter-Glo, 24 h; series mostly up to 57.5 µM; activity change, negative = cytotoxicity: at the top concentration
# Description: Assay Provider: Jim Inglese Ph.D. National Center for Advancing Translational Science, National Institutes of Health, Rockville, MD CMT is a heterogeneous group of neurological disorders that affect approximately 1 in 2,500 people. In particular, the most common form of CMT, CMT1A is genetically linked to the duplication of the PMP22 gene which leads to Schwann cell overexpression, thus manifesting itself as a typical case of dose-sensitive diseases. To identify small molecule compounds that can mediate the expression of PMP22 we developed a phenotypic assay screening strategy by utilizing genome editing techniques to construct Schwann cell lines containing novel reporter technology to monitor the transcriptional or translational regulation of PMP22. For high sensitivity we use a bioluminescent reporter system embedded in the 3' UTR of the PMP22 gene (S16(c9) Pmp22-F2sN) to identify compounds that inhibit gene expression. […] We can further discriminate the effect of all transcriptionally active molecules on PMP22 translation or stability with an assay that incorporates a short NLuc peptide (HiBiT) at the C-terminus of expressed PMP22 (S16(f8) PMP22-HiBiT) allowing alpha complementation and luminescence detection of membrane-associated PMP22 protein. These assays were screened against the NCATS Sytravon Library Collection. Miniaturization of these assays to 1536-well plate format for quantitative high throughput screening (qHTS) yielded rich data sets immediately from the qHTS assay (S16(c9) Pmp22-F2sN), when compared with data from a cell viability assay (Cell TiterGlo) to identify compounds that decreased the output signals through cellular toxicity to streamline the selection process of actives for subsequent characterization using the HiBiT assay (S16(f8) PMP22-HiBiT).
# Cell viability assay in S16 Pmp22-F2sN cells PROTOCOL TABLE (format as described by Inglese J, Shamu CE and Guy RK. 2007) SEQUENCE No. (e.g., 1, 2, 3, etc.); […] (e.g., Cells, Incubation, Reagent, etc.); VALUE and DESCRIPTION. 1. Cells. Add 500-1,000 cells in 4 uL in growth media (DMEM High Glucose, No Phenol Red media + 10% heat-inactivated FBS + 1% Pen/Strep supplemented media) per well into Greiner 1536-well white/solid bottom high base, TC-treated plates. 2. Compounds. Library compounds and controls added at 23nL per well, transferred by Pin Tool. 3. Incubation. Incubate plates at 37C, 5% CO2, 95% RH for 24 h. 4. Reagent. Add 3uL CellTiter-Glo per well of Greiner 1536-well plates. 5. Incubation. Incubate plates at room temperature for 15 min., protect from light. 6. Detector. FLuc luminescence measured using CCD-based camera (Viewlux). NOTES (numbers refer to Sequence numbers above; values are from representative experiments) 6. Luminescence Read: Clear filter; Exposure = 1 sec, Gain = High, Speed = Slow, Binning = 2X REFERENCES: 1. Inglese J, Shamu CE and Guy RK, Reporting data from high throughput screening of small molecule libraries, Nature Chemical Biology, 2007, 3(8): 438-441. doi.org/10.1038/nchembio0807-438 2. Yasgar A, Shinn P, Jadhav A, Auld DS, Michael S, Zheng W, Austin CP, Inglese J and Simeonov A, Compound Management for Quantitative High-Throughput Screening. J. Assoc. Lab. Auto., 2008, 13: 79-89. doi: 10.1016/j.jala.2007.12.004
# % is set by controls: 0 for no effect and ±100 for the full control effect.
row,SMILES,"activity change, negative = cytotoxicity"
1,Cc1c(Cl)cccc1NC(=O)c1ccc2c(c1)CCN2S(=O)(=O)c1ccccc1,inactive: 3.16%
2,Cn1nnnc1SCCCNCc1cc(Cl)ccc1OCc1ccc(F)cc1,inactive: -27.7%
3,COC(=O)c1c(NC(=O)c2nc(SCc3ccc(F)cc3)ncc2Cl)sc2c1CCCC2,inactive: 1.89%
4,Nc1c(C(=O)Nc2ccc(OC(F)(F)F)cc2)sc2nc(-c3ccncc3)ccc12,inactive: 2.96%
5,Cc1nn2c(=O)cc(COC(=O)Cc3ccccc3)nc2s1,inactive: 13.1%
6,CCOc1ccccc1-c1noc(CSc2nnc(-c3ccccc3)n2-c2ccc(F)cc2)n1,inactive: -4.21%
7,COc1ccc(CNC(=O)C2CCCN(S(=O)(=O)c3cccc4nsnc34)C2)cc1 (centres undefined),inactive: 2.1%
8,COc1ccccc1NC(=O)C1=C(C)Nc2nc(CCCO)nn2C1c1cccc(O)c1 (centres undefined),inactive: 12.5%
9,COc1ccc2c(Sc3ccc(C)cc3)c(C(=O)NCc3ccc(F)cc3)[nH]c2c1,inactive: 10.5%
10,O=C(Cn1cc(S(=O)(=O)N2CCCC2)c(S(=O)(=O)N2CCCC2)c1)Nc1ccccc1,inactive: 5.56%
11,Cn1c(=O)c(=O)n(C)c2cc(S(=O)(=O)N3CCN(c4ccc(F)cc4)CC3)ccc21,inactive: 1.64%
12,COc1cc(C2CC(=O)c3cnc(N4CCN(CCO)CC4)nc3C2)cc(OC)c1OC (centres undefined),inactive: 15.1%
13,CCCC(=O)Nc1cc(C(=O)NCc2ccccc2)ccc1S(=O)(=O)c1ccc(Cl)cc1,inactive: -22.3%
14,O=C(CSc1nc2c(oc3ccccc32)c(=O)n1-c1ccccc1)Nc1ccccc1F,inactive: -16.9%
15,CC(C)c1ccc(NC(=O)CC2NCCNC2=O)cc1 (centres undefined),inactive: 3.34%
16,Cc1ccc(S(=O)(=O)N2CCCc3cc(NS(=O)(=O)c4cc(F)ccc4F)ccc32)cc1,inactive: -0.103%
17,O=C(CCCn1c(=O)c2ccccc2n(Cc2cccc(Cl)c2)c1=O)NCCc1ccc(Cl)cc1,inactive: -25.7%
18,COc1cccc(N2CCN(C(=O)C3Cc4ccccc4N3C(C)=O)CC2)c1 (centres undefined),inactive: 1.59%
19,CCCN(CCC)CCCNC(=O)c1cn(CC)c2ccc(S(=O)(=O)N(C)C3CCCCC3)cc2c1=O,inactive: 0.376%
20,CCc1ccc(OCc2cc(=O)n3c4c(sc3n2)CCCC4)cc1,inactive: -10.5%
21,Cc1ccc(S(=O)(=O)c2nnn3c2nc(NC(C)C)c2sccc23)cc1,inactive: -7.71%
22,CCNc1ncnc2c1nnn2C,inactive: -4.04%
23,CCOC(=O)c1c(C)[nH]c(CCC(=O)Nc2c(C)cccc2CC)c1C,inactive: 5.71%
24,Cc1cccc(-c2nc3ccccc3n2Cc2ccccc2)c1,inactive: 12.2%
25,CCC(=O)Nc1ccccc1-c1nc2ccccc2n(CC(=O)c2ccc(Cl)cc2)c1=O,inactive: 6.57%

row,SMILES,"activity change, negative = cytotoxicity"
1,CCOC(=O)N1CCc2c(sc(NCc3cccc(F)c3)c2C(=O)Nc2ccc(OC)cc2OC)C1,inactive: -23.1%
2,CCOC(=O)C1CCCN(C(=O)C2CCN(S(=O)(=O)c3c(C)noc3/C=C/c3ccccc3F)CC2)C1 (centres undefined),inactive: -2%
3,Cc1ccccc1NC(=O)Nc1nnc(N2CCCCCC2)s1,inactive: -2.59%
4,COc1ccccc1NC(=O)CCn1nc(-c2ccccc2OC)c2c(C)cc(C)nc21,inactive: -6.6%
5,CCC(=O)N1CCc2cc(Br)cc(S(=O)(=O)CCC(=O)N3CCN(c4ccc(F)cc4)CC3)c21,inactive: -19.2%
6,Cc1cc(C)c(C)c(OCC(=O)Nc2ccc(S(=O)(=O)Nc3nc(C)cc(C)n3)cc2)c1,inactive: 6.92%
7,COc1ccc(CC(=O)NCCc2sc3nc(-c4ccc(OC)cc4)nn3c2C)cc1,inactive: -14.4%
8,COc1ccc2c(c1)-c1nc(NC(=O)c3ccc(OC)c(Br)c3)sc1CC2,inactive: -18.7%
9,Cc1cccc(-c2noc(CN(C3CCCCC3)S(=O)(=O)c3ccc(F)cc3)n2)c1,inactive: 2.31%
10,COc1ccc(CNC(=O)CN(c2ccc(C(C)C)cc2)S(=O)(=O)c2c(C)nn(C)c2C)cc1,inactive: 0.611%
11,COc1ccc(NC(=O)CSc2nc3ccccc3nc2N2CCC(C)CC2)cc1,inactive: 6.76%
12,COc1cc(/C=C/c2nc(C#N)c(N3CCCCC3)o2)cc(OC)c1OC,inactive: -7%
13,CC1=C(C(=O)NCc2cccc(Br)c2)C2(CCCCC2)OC1=O,inactive: 1.2%
14,CCCCOC(=O)/C(C#N)=C/c1ccc(-c2cccc(C(F)(F)F)c2)o1,inactive: 7.89%
15,CCOc1ccc(-c2nonc2NC(=O)c2ccco2)cc1,inactive: 7.31%
16,CCOc1ccc(NC(=O)CSc2nc3c(oc4ccccc43)c(=O)n2-c2cc(C)cc(C)c2)cc1,inactive: 13.9%
17,Cc1ccc(C(=O)Nc2c(-c3ccccc3)nc3ccccn23)cc1,inactive: -10.1%
18,Cc1ccc(C2c3[nH]c4ccccc4c3CCN2C(=O)c2ccccc2Br)cc1 (centres undefined),inactive: 11%
19,CCCN(CCC)C(=O)Cn1c(=O)n(-c2ccc(C)c(C)c2)c(=O)c2c3c(sc21)CCCCC3,inactive: -4.57%
20,CC1CCC(NC(=O)CCc2cn(Cc3ccccc3Cl)c3ccccc23)CC1 (centres undefined),inactive: -11.4%
21,Cc1nn(-c2ccc(F)cc2)c(-n2cccc2)c1C(=O)N1CCN(c2ccccc2)CC1,inactive: 8.16%
22,Cc1cc2nn(-c3ccccc3)nc2cc1NC(=O)COc1ccc(Cl)cc1,inactive: -3.17%
23,CCOc1ccc(Cn2nnc(C(=O)Nc3cccc(SC)c3)c2N)cc1,inactive: -0.235%
24,Cc1ccc(NC(=O)CSc2nnc(-c3cc4occc4n3C)n2-c2ccccc2C)c(Cl)c1,inactive: 9.85%
